Assay results taken from ChEMBL document CHEMBL4888484, “Replenishing the malaria drug discovery pipeline: Screening and hit evaluation of the MMV Hit Generation Library 1 (HGL1) against asexual blood stage Plasmodium falciparum ,using a nano luciferase reporter read-out” (2022).
The whole screen tested about 150,000 compounds, of which about 540 (0.36%) showed an effect of 50% or more. Some of the results follow.

Test system: Plasmodium falciparum
Experiment: Primary screen in NF54 nanoGlo assay, in single point, at 2uM, 72h; a lower Z score goes with more inhibition
Type: functional, Erythrocyte
Settings: timepoint 72 hour

| Structure (SMILES) | % Inhibition [%] | Z score |
| --- | --- | --- |
| Cc1cc(Br)cc(C(=O)NC(C)(C)C(=O)N(C)C)c1 | -6 | 0.66 |
| CC(=O)Nc1c(S(=O)(=O)c2ccc(F)cc2)c(C)c(C)n1CC(C)C | -4 | 0.53 |
| COc1ccc(-c2nn(-c3ccccc3C)cc2CN(C)C[C@H]2COCCO2)cc1F | -7 | 1.33 |
| Cc1nc(C(=O)NCC2CCN(Cc3nnc(C)s3)CC2)cs1 | -10 | 1.27 |
| O=C(Cc1nnc(-c2ccsc2)o1)Nc1ccc(Cl)cc1Cl | -6 | 0.59 |
| Cc1ccc(CCC(=O)Nc2nc(-c3ccc4c(c3)NC(=O)[C@H](C)O4)c(C)s2)cc1 | -7 | 1.14 |
| O=C(N[C@@H]1c2ccccc2C[C@H]1O)c1cccc(-c2cn[nH]c2)c1 | -12 | 2 |
| COc1ccc(C(=O)Nc2ccc(-n3nc(OC)nc3-c3ccc4c(c3)OCO4)cc2)cc1 | -14 | 2.72 |
| CCN1C(=O)CO[C@H](C(=O)Nc2ccc3c(n2)CCCC3=O)[C@H]1c1cnn(C)c1 | 1 | -0.08 |
| COc1ccc(CNC(=O)N2CC[C@H](Oc3nc(C)cc(C)n3)C2)cc1 | -12 | 1.82 |
| Cn1c([C@H]2CCCN(C(=O)NCCN3CCCC3)C2)nc2ccccc21 | -6 | 1.31 |
| O=C(CCn1cnc2cc(S(=O)(=O)N3CCCC3)ccc21)Nc1nc2ccccc2s1 | -10 | 1.25 |
| CC(C)n1cc2c(n1)C[C@@H](NC(=O)c1cc3cccnc3s1)CC2 | -11 | 1.07 |
| Cc1ccc(CCNC(=O)c2ccc(-n3nc(OCc4cccc(F)c4)ccc3=O)cc2)cc1 | -1 | 0.25 |
| CNC(=O)C1CN(Cc2nc(-c3ccccc3)cs2)C1 | 0 | 0.06 |
| CCc1ccc(C2CC(C(=O)NCc3ccco3)CN(C(=O)c3ccc(F)cc3)C2)cc1 (centres undefined) | -15 | 2.84 |
| CCc1[nH]nc(-c2ccc(C(F)(F)F)cc2)c1NC(=O)C1CCCC1 | 8 | -1.11 |
| Cn1cc([C@@H]2CN(S(=O)(=O)c3ccccc3Cl)Cc3ccccc32)cn1 | 3 | -0.39 |
| OC[C@H]1CN(Cc2ccc3ccccc3c2)C[C@H]1CN1CCCCC1 | 4 | -0.8 |
| CCOc1ccc(NC(=O)Cn2c3cc(Cl)ccc3c(=O)n2C(C)(C)C)cc1 | 6 | -0.91 |
| O=c1[nH]c(=O)n(CCC2OCCO2)cc1Cl | -1 | 0.17 |
| O=S(=O)(c1ccc(-n2cc(-c3cnn(Cc4ccccc4)c3)cn2)nc1)N1CCCCC1 | -14 | 2 |
| CC(C)N1CCN2[C@H](CN(Cc3ccccc3)C[C@@]2(C)CO)C1 | -17 | 2.13 |
| CC(C)N(Cc1ccsc1)C[C@H]1CCC(=O)N1 | -5 | 0.62 |
| O=C(Nc1ccccc1)c1nc[nH]c1/N=C(/NCc1ccccc1)Nc1ccccc1 | 27 | -3.07 |
| CC(C)(C)c1nccn1C1Cc2ccccc2C1 | -16 | 1.45 |

| Structure (SMILES) | % Inhibition [%] | Z score |
| --- | --- | --- |
| CCCO[C@H]1CCCN(Cc2ccc(OC)nc2)C1 | 17 | -2.18 |
| COc1ccc([C@H]2OCC[C@@H]2NC(=O)NCc2nc3cc(C)ccc3n2C)cn1 | 11 | -2.03 |
| COc1ccc(S(=O)(=O)N2CC3(CC[C@H](CN4CCCC4)O3)C2)cc1 | -10 | 1.66 |
| Cc1nn(-c2ccccc2)c2ncc(NC(=O)[C@]3(C)CCCO3)cc12 | 7 | -1.3 |
| CCCn1ccnc1CN1CCc2nnc(Cc3cccnc3)n2CC1 | -21 | 2.66 |
| Cc1cc(C(=O)N[C@@H](C)Cc2ccsc2)nc(C)n1 | -8 | 1.38 |
| CC(C)[C@@H](CO)NS(=O)(=O)c1cccc(C(=O)NCc2ccncn2)c1 | -20 | 3.36 |
| COc1ccc(Nc2cc(Nc3ccc(OC)cc3)n(C(=O)c3ccc(Cl)cc3)n2)cc1 | 8 | -1.24 |
| CC(NC(=O)c1cn(CC(O)c2ccccc2)nn1)c1ccccc1 (centres undefined) | -9 | 1.78 |
| CC1CC1NC(=O)N(C)C(C)c1cnn(C)c1 (centres undefined) | 11 | -1.97 |
| O=C(C[C@@H]1CCNC[C@@H]1Cc1cc(-c2ccccn2)on1)N1CCN(c2ccccc2)CC1 | 30 | -3.43 |
| NC(=O)c1c(NC(=O)c2cnccn2)sc2c1CCCCC2 | 3 | -0.51 |
| CC1CN(Cc2nccs2)CC(C)N1Cc1nccs1 (centres undefined) | -13 | 2.1 |
| CCOC(=O)C(=O)Nc1cnn(CC)c1C(=O)Nc1cnn(C)c1C | 0 | 0 |
| O=C(O)C[C@H]1COCCN1C(=O)Cn1ccnc1 | -18 | 2.29 |
| CC(C)Cc1ccc(S(=O)(=O)N(CCN2CCN(C)CC2)CC(=O)N2CCNCC2)cc1 | 21 | -2.49 |
| Cc1c2c(C(F)(F)F)cc(=O)n(CCC(=O)Nc3ccc4c(c3)OCCO4)c2nn1C | 38 | -5.08 |
| CC(C)S(=O)(=O)N1CC[C@@]2(CCCN(CC3CC3)C2=O)C1 | 2 | -0.22 |
| CC(C)c1nc(CNC2CCN(c3ccc4c(c3)OCO4)CC2)no1 | 3 | -0.51 |
| CC(C)c1cc(C(=O)N2CCO[C@H](C(=O)O)C2)c2ccccc2n1 | -4 | 0.56 |
| CCc1ncnc(CC)c1C(=O)NC[C@@H]1CNC(=O)C1 | 6 | -1.18 |
| Cc1nc(C(=O)NCc2cccc(N3CCCC3)c2)cs1 | -4 | 0.76 |
| Cc1noc2ncnc(NCCc3noc(C4CCCC4)n3)c12 | -16 | 1.48 |
| CCN(CC)C[C@@H]1OCC(NS(=O)(=O)c2ccc(C)cc2)[C@H]1O (some centres undefined) | -3 | 0.53 |
| O=C(NCc1ccc(C2CC2)nc1)NC1CCCC1 | 20 | -2.56 |
| CCc1ccc(CNS(=O)(=O)c2cccc(C(=O)NC3CCC3)c2)nc1 | 2 | -0.31 |
